Screen size: about 370,000 compounds; about 150 (0.041%) were called active. Inconclusive means that the source gave no clear call. Such entries were picked first, then a sample of the others. The call rests on the fitted dose curve; in most records, active means well fitted inhibition curve with a large enough effect; inconclusive means small, poorly fitted or top-dose-only effect; inactive means flat fitted curve, though single readings scatter. Potencies of inconclusive entries are left out as doubtful fits.
Target: Beta-lactamase (Escherichia coli (strain K12)) (UniProt P00811)
UniProt P00811, sequence (P00811 whole entry, looked up): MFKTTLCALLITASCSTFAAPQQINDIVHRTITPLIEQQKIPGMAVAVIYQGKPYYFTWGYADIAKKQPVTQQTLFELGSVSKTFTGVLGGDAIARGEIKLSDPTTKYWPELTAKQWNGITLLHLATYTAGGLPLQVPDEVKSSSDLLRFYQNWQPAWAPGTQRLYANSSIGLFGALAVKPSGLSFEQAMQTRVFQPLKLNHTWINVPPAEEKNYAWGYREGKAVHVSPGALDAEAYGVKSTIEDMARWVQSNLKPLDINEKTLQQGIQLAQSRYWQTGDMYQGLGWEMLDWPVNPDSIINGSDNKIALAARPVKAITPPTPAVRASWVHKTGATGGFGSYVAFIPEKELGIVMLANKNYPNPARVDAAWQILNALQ
Experiment: qHTS Inhibitors of AmpC Beta-Lactamase (assay with detergent); further: nearly all actives have a fitted effect of over 25% in size;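 on activity change, negative = inhibition: 0% = no-compound wells and -100% = no-enzyme wells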
Settings: AmpC hydrolysis of nitrocefin, absorbance 480 nm, 0.01% Triton; activity change, negative = inhibition: at 114 µM (top of the series)
In short: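 20 mM phosphate pH 7.0 + 0.01% (detergent screen) or 0.0001% Triton X-100; 5.3 nM AmpC reagent; cpd preinc 15 min RT; nitrocefin (800 uM stock) to start; A480 q20 s × 4 min; Activity was normalised to no-enzyme and no-compound control wells.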
Potency means the concentration at half of the fitted maximal effect; tags describe the fitted curve by direction and shape.

SMILES	activity change, negative = inhibition	Potency
COc1ccc(S(=O)(=O)N2CCOCC2)cc1NC(=O)COC(=O)C1CC2CCCC(C1)C2=O (stereo unspecified)	inactive: -4.48%	–
CC(C)(C)NS(=O)(=O)c1ccc(/C=C/C(=O)O)cc1	–	inconclusive [inhibitor, full curve, poor fit]
CCOc1ccc(-c2cc(OC(=O)c3ccc(OC)cc3)c3c(C)oc(C)c3c(=O)c2)cc1	inactive: 9.03%	–
COc1cc2nc(C3CCC3)n(NC(=O)COc3ccccc3)c(=O)c2cc1OC	–	inconclusive [inhibitor, partial curve]
COc1ccc(CCNC(=O)COc2ccc(N(C)S(=O)(=O)c3ccc(C)cc3)cc2)cc1OC	–	inconclusive [inhibitor, full curve, poor fit]
CCOC(=O)c1cc(CC)sc1NC(=O)COc1ccc2c(C)cc(=O)oc2c1	–	inconclusive [inhibitor, partial curve]
COc1ccc(CN2CCN(Cc3ccccc3OC)CC2)cc1	inactive: -2.02%	–
Nn1c(SCc2ccccc2F)nnc1-c1ccncc1	inactive: -4.78%	–
Cc1cc(OCc2cc(C(=O)N(C)CCOc3ccccc3)no2)cc(C)c1Cl	inactive: -7.14%	–
O=C(Nc1cc(Cl)cc(Cl)c1)c1cccnc1	–	inconclusive [inhibitor, full curve]
Cc1c(NC(=O)c2ccco2)cccc1C(=O)NN1C(=O)c2ccccc2C1=O	–	inconclusive [inhibitor, single point]
COc1ccc(NS(=O)(=O)c2cc(NC(=O)Cn3cnc4c3c(=O)n(C)c(=O)n4C)ccc2C)cc1	inactive: -3.44%	–
CCOC(=O)c1sc(NC(=O)CSc2nc(-c3ccco3)cc(C(F)(F)F)n2)c(C#N)c1C	–	inconclusive [inhibitor, full curve]
COc1ccc(C2C=C(c3ccccc3)Nc3nc(CCCO)nn32)cc1 (stereo unspecified)	inactive: -5.01%	–
COc1ccc(N2CCN(C(=S)Nc3ccc(F)cc3)CC2)cc1	–	inconclusive [inhibitor, full curve, poor fit]
CC1CCC2(CC1)NC(=O)N(CC(=O)Nc1ccc3[nH]c(=O)[nH]c3c1)C2=O (stereo unspecified)	–	inconclusive [inhibitor, partial curve, poor fit]
COc1ccc(COc2ccsc2C(=O)Nc2ccc(Cl)cc2)cc1	inactive: -0.208%	–
CC(Sc1nnc(Cc2cccs2)n1C1CCCCC1)C(=O)NCc1ccco1 (stereo unspecified)	–	inconclusive [inhibitor, full curve, poor fit]
COc1ccccc1-n1c(SCC(=O)NC(C)(C)C)nc(O)cc1=O	inactive: -10.5%	–
COc1cc(/C=C2\C(=O)N(CCC#N)N=C2C)c(Br)cc1OC(C)C	–	inconclusive [inhibitor, full curve, poor fit]
NC1=NC2(CCC(c3ccccc3)CC2)n2c(nc3ccccc32)N1 (stereo unspecified)	–	inconclusive [inhibitor, partial curve, poor fit]

SMILES	activity change, negative = inhibition	Potency
O=C(CN1CCOCC1)N1CCN(c2ccc([N+](=O)[O-])cc2)CC1	–	inconclusive [inhibitor, single point]
O=C(c1ccc(-c2ccccc2Cl)o1)N1CCN(c2ccccc2O)CC1	–	inconclusive [inhibitor, full curve, poor fit]
COc1ccc(/C(C)=N/NC(=O)c2nnn(-c3nonc3N)c2-c2ccccc2)cc1	–	inconclusive [inhibitor, full curve, poor fit]
CCOc1ccc(S(=O)(=O)N2CCOCC2)cc1NC(=O)c1ccc(N2CCCC2=O)cc1	–	inconclusive [inhibitor, full curve, poor fit]
O=C(NN1C(=O)C2C3CCC(O3)C2C1=O)c1ccc(Cl)cc1 (stereo unspecified)	–	inconclusive [inhibitor, partial curve]
O=[N+]([O-])c1ccccc1/C=N\N1CCN(Cc2ccccc2Cl)CC1	–	inconclusive [inhibitor, full curve, poor fit]
O=C(Nc1ccc(S(=O)(=O)N2CCOCC2)cc1)C1CCN(S(=O)(=O)c2ccc(F)cc2)CC1	–	inconclusive [inhibitor, full curve, poor fit]
Cc1cccc(Nc2nnc(-c3ccc(C(=O)N4C[C@H]5C[C@H](C4)c4cccc(=O)n4C5)cc3)c3ccccc23)c1	inactive: 1.13%	–
N#C/C(=C/c1ccc(N2CCCC2)c([N+](=O)[O-])c1)c1nc2ccccc2[nH]1	inactive: -4.64%	–
CC(SC1=NCCS1)C(=O)Nc1nnc(-c2ccc(Cl)cc2)s1 (stereo unspecified)	–	inconclusive [inhibitor, full curve, poor fit]
Fc1ccc(-c2csc3nnc(SCc4cccnc4)n23)cc1	–	inconclusive [inhibitor, full curve]
CCCn1cc(SCC(=O)NCC2CCCO2)c2ccccc21 (stereo unspecified)	–	inconclusive [inhibitor, full curve]
Cc1cc(C(=O)CSc2nnc(-c3ccco3)o2)c(C)n1Cc1ccco1	–	inconclusive [inhibitor, full curve, poor fit]
Cc1cnc(C(=O)NCCc2ccc(Cl)cc2)cn1	–	inconclusive [inhibitor, partial curve, poor fit]
O=C(NN1C(=O)c2ccccc2NC1c1ccccn1)c1ccc([N+](=O)[O-])cc1 (stereo unspecified)	–	inconclusive [inhibitor, full curve, poor fit]
Cc1ccc(Nc2nc(C)cs2)cc1	inactive: 2.93%	–
COc1cccc(/C=C2\Oc3cc(OCC(=O)N4Cc5ccccc5C[C@H]4C(=O)O)ccc3C2=O)c1	–	inconclusive [inhibitor, full curve]
Cc1cccc(-n2c(C)cc(/C=N/NC(=O)c3cccc([N+](=O)[O-])c3C)c2C)c1	–	inconclusive [inhibitor, full curve]
Cn1ccc2cc3c(cc21)CCN3C(=O)Nc1cccnc1	–	inconclusive [inhibitor, full curve, poor fit]
CCN(CC)c1ccc(/C=N/NC(=O)CCC(=O)NCc2ccccc2)c(O)c1	inactive: -1.49%	–

Reference: PubChem BioAssay AID485294 (National Center for Advancing Translational Sciences (NCATS), 2010)
